{"source": "paper PMC3483465", "about": "(FEBS letters, 2012)", "binders": {"B1": {"name": "Escherichia coli single-stranded DNA binding protein (SSB), wild type (natural protein)", "chain": "not shown"}}, "key": {"[1]": {"molecular_target": "T1, Escherichia coli DNA damage inducible DNA helicase DinG (E. coli, UniProt P27296 1-716)", "T1 sequence (looked up)": "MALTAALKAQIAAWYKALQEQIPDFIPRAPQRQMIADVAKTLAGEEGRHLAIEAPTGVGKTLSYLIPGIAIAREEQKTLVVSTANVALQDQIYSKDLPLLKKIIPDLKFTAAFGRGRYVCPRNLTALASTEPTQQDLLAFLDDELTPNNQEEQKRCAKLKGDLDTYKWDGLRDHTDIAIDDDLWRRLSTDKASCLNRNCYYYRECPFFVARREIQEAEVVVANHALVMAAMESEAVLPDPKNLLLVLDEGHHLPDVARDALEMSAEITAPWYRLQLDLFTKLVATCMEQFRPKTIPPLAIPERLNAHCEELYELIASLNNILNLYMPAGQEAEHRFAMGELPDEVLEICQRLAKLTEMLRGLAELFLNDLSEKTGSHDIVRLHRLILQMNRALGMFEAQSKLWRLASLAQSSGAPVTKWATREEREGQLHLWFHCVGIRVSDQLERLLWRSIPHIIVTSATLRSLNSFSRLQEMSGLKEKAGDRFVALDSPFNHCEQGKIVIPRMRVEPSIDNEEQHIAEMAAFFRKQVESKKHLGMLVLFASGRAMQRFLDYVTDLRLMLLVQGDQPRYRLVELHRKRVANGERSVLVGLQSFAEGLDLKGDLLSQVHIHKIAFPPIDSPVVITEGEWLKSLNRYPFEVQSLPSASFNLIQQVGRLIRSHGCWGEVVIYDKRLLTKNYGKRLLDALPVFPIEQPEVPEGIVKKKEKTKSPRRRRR", "test": "cell-based or functional assay"}, "SEC": {"molecular_target": "the molecule itself", "test": "SEC"}}, "data": [{"binder": "B1", "values": [{"measurement": "DinG DNA helicase activity, 25, 50 and 100 nM DinG with or without 1 μM SSB", "setting": "[1]", "result": "≥ 2", "unit": "fold"}, {"measurement": "stoichiometry N", "setting": "SEC", "result": 4}]}]}
